Reference: the supplement of paper PMC10126150
Sequences with one replicate were seen in a single cluster, so their values are uncertain.

Tested on: ATP
Test: switch fluorescence ratio, 500 uM ATP over buffer (Cy3 cluster intensity, sum of 5 cycles each) (fold (ratio)); higher = stronger signal-on switching upon ATP binding; sequences stand for … in TCGTCGGCAGCGTCAGATGTGTATAAGAGACAGTTTTTTTTTTTTTTTTTTTTTTTTT…TC
Conditions: aptamer strand: ATP DNA aptamer (quencher-CACCTGGGGGAGTATTGCGGAGGAAGG + anchor), 100 nM annealed; ATP concentration: 500 uM; one replicate
In short: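 Per cluster, summed Cy3 intensity from the target cycles was divided by that from the buffer cycles to give the fluorescence ratio, then averaged per switch-domain sequence. Clusters outside 100-1000 RFU were excluded. The Cy3-labelled switching-strand clusters, on a modified Illumina MiSeq flow-cell, were annealed to 100 nM quencher-labelled ATP aptamer and imaged in selection buffer, then after 15 min with 500 uM ATP at 22 °C, for five cycles with NaOH stripping and re-annealing between them.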
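Further: ATP exposure 15 min at 22 °C before imaging.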

Row | Sequence | switch fluorescence ratio
1 | CAGAAACCT | 4.44
2 | CAGAACTAAG | 1.04
3 | CAGAAGGAGT | 0.993
4 | CAGAAGTCG | 0.988
5 | CAGAATACTC | 2.14
6 | CAGAATCAGA | 0.977
7 | CAGAATTTGT | 1.03
8 | CAGAATTTTG | 0.974
9 | CAGACACGAT | 1.11
10 | CAGACCACAT | 1.06
11 | CAGACCCTAA | 1.04
12 | CAGACCCTTC | 1.07
13 | CAGACCTTTT | 1.02
14 | CAGAGAATCC | 1.03
15 | CAGAGAGTGT | 1.01
16 | CAGAGCAAAC | 4.16
17 | CAGAGCTTAT | 1.13
18 | CAGAGGATTC | 1.01
19 | CAGAGGCAGC | 1.09
20 | CAGAGGTGCA | 1
21 | CAGAGGTTGG | 0.987
22 | CAGAGTAATC | 1.16
23 | CAGAGTTCGC | 1.01
24 | CAGATCTGGG | 1.01
25 | CAGATGCGCT | 0.969

Row | Sequence | switch fluorescence ratio
26 | CAGATTGGGC | 1.04
27 | CAGATTGTAA | 0.973
28 | CAGATTGTGG | 0.965
29 | CAGATTTCAG | 0.964
30 | CAGCAAGTAG | 2.05
31 | CAGCAATGAT | 2.21
32 | CAGCACCGG | 1.13
33 | CAGCAGGGCG | 0.999
34 | CAGCATCCGG | 1.04
35 | CAGCCGAGAA | 1.07
36 | CAGCCGCTCT | 1.04
37 | CAGCCGTTGA | 1.01
38 | CAGCCTCCGG | 1.05
39 | CAGCGAGTGC | 1.14
40 | CAGCGATCAC | 3.57
41 | CAGCGCATGG | 1.35
42 | CAGCGCTAGT | 0.98
43 | CAGCGCTTTC | 1.22
44 | CAGCGGCCG | 1.05
45 | CAGCGGTCCA | 1.04
46 | CAGCTAATGC | 1.65
47 | CAGCTAGTAT | 0.984
48 | CAGCTGCCTT | 1.02
49 | CAGCTGTCAC | 1.13
50 | CAGGAAAAGA | 1

Row | Sequence | switch fluorescence ratio
51 | CAGGAATCGG | 1.01
52 | CAGGAATTGG | 0.975
53 | CAGGACAGAT | 0.981
54 | CAGGACCCAC | 1.41
55 | CAGGACGGCA | 1.01
56 | CAGGAGGCAA | 2.69
57 | CAGGAGGTTG | 1
58 | CAGGATAAGA | 1.01
59 | CAGGATCCAC | 1
60 | CAGGATTTAA | 0.974
61 | CAGGCATCAC | 1.22
62 | CAGGCATGTG | 1.03
63 | CAGGCCAAGA | 1.12
64 | CAGGCCGGCA | 0.988
65 | CAGGCGGGGC | 0.998
66 | CAGGCGTAAC | 1.08
67 | CAGGCTAGCT | 1.01
68 | CAGGCTTAAA | 0.99
69 | CAGGGAACAT | 1.01
70 | CAGGGAGGGC | 0.954
71 | CAGGGCGTTG | 1
72 | CAGGGGTAAG | 0.971
73 | CAGGGGTGG | 0.99
74 | CAGGGTAGGT | 1.01
75 | CAGGGTCGCG | 0.981

Row | Sequence | switch fluorescence ratio
76 | CAGGGTCGGA | 0.971
77 | CAGGTCAAAA | 1.02
78 | CAGGTCGGTC | 1.01
79 | CAGGTGTTCT | 1.46
80 | CAGGTTAAGA | 0.966
81 | CAGGTTAGGA | 1.03
82 | CAGGTTTGAC | 0.915
83 | CAGTAAAAAT | 0.978
84 | CAGTAAGGTG | 1.07
85 | CAGTACGGGA | 1.05
86 | CAGTAGTTTG | 0.953
87 | CAGTATCCA | 0.974
88 | CAGTCACGGA | 0.982
89 | CAGTCCAGCG | 1
90 | CAGTCGATCT | 1.01
91 | CAGTCGGTCC | 0.968
92 | CAGTCTCAA | 1.01
93 | CAGTCTCAGC | 0.949
94 | CAGTGCACGT | 1.02
95 | CAGTGCAGCT | 1.02
96 | CAGTGCAGGA | 0.989
97 | CAGTGCCCTT | 1.02
98 | CAGTGGAACT | 1.01
99 | CAGTGGGGT | 0.98
100 | CAGTGTCGA | 1.02
